The values below come from article PMC4336329 (PLoS ONE, 2015).

Structures are written as SMILES. About 2,200 (0.71%) of roughly 310,000 compounds showed an effect of 50% or more. The effect is printed as a negative number. The list shows a part of the results.

For this test, the target named is human ether-à-go-go-related gene (hERG) potassium channel (human, UniProt Q12809). As to the kind of experiment: primary screen, population patch clamp on CHO cells stably expressing hERG.
human ether-à-go-go-related gene (hERG) potassium channel, sequence (Q12809 whole entry, looked up): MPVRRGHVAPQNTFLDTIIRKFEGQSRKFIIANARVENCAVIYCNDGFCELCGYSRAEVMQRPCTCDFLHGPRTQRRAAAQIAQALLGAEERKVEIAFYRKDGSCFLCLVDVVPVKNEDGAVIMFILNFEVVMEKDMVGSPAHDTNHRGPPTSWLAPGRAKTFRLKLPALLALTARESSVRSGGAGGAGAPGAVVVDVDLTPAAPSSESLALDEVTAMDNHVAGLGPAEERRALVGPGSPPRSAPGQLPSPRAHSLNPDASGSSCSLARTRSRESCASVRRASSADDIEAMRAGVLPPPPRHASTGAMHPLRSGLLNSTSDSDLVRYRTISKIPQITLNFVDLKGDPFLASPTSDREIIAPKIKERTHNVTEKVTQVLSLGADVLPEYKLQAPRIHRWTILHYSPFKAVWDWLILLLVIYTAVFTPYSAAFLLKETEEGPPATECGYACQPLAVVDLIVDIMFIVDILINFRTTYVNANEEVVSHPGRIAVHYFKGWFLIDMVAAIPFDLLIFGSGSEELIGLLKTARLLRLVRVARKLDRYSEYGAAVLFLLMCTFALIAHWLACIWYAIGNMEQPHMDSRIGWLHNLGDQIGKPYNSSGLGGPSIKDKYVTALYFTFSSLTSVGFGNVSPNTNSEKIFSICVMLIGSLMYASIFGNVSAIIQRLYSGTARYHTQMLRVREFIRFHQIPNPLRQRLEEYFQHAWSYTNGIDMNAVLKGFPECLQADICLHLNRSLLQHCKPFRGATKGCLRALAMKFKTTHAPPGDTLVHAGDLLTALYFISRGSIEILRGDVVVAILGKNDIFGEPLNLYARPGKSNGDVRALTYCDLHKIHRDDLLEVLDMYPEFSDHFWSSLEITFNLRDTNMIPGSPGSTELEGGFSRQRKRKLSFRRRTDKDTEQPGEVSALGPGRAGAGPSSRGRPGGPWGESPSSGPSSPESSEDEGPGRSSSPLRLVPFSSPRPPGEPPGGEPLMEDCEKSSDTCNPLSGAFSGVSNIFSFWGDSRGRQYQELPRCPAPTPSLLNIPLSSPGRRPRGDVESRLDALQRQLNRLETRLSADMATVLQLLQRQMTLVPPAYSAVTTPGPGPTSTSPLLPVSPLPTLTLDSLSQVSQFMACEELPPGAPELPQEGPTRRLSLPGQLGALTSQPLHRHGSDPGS
Take `Cc1ccc(Cc2cc(-c3ccc(C)cc3)n[nH]c2=O)cc1`: the “hERG current change (%, negative = inhibition) at 1uM” value was 9.7%. On to `O=C1C2CCCCN2C(=O)N1CCCCN1CCN(c2ccc([N+](=O)[O-])cc2)CC1` (stereo not drawn), for which the “hERG current change (%, negative = inhibition) at 1uM” value is reported as -80.7%.

Consider `CCn1c(CNc2ccccc2Cl)nnc1SCCN1CCCCC1`, for which the “hERG current change (%, negative = inhibition) at 1uM” value is -11%.

As for `COC(=O)c1cccc(NC(=O)c2ccco2)c1`, the “hERG current change (%, negative = inhibition) at 1uM” value is recorded as 6.81%. Under `COc1ccc(S(=O)(=O)N2CCCCCC2)cc1N` stands -6.16%. The value for `O=c1c2cc(F)ccc2sn1-c1ccc(F)cc1` was 12.5%. The value for `CCOC(=O)c1ccc(NC(=O)Nc2ccccn2)cc1` was 17.3%.

As to `Cc1cc(N)n(Cc2cccs2)n1`, the “hERG current change (%, negative = inhibition) at 1uM” value is on record as -4.3%. Under `CCOC(=O)c1sc(NC(=O)C2CC2)nc1C` stands 7.82%; under `CC1(C)Cc2c(sc3ncnc(N)c23)CO1`, 4.62%; under `Cc1ccccc1-c1cc(C(=O)N/N=C/c2cccnc2)c2ccccc2n1`, 5.16%.

As to `COc1ccc(C2=Nn3c(nnc3C(F)(F)F)SC2)cc1`, the “hERG current change (%, negative = inhibition) at 1uM” value is reported as 7.11%.

With `CCCCC(=O)Nc1cc([N+](=O)[O-])ccc1Cl`, the “hERG current change (%, negative = inhibition) at 1uM” value is 15.5%. Under `CN(C)C(CNC(=O)CCCN1C(=O)c2cccc3cccc(c23)C1=O)c1ccccc1` (stereo not drawn) stands -1.32%; under `COc1ccc(OC)c(/C=N/NC(=O)CCCC(=O)Nc2cccc(Br)c2)c1`, 14.8%. Under `C/C(=N\Nc1ccc(S(N)(=O)=O)cc1[N+](=O)[O-])c1cccnc1` stands 16.2%. Under `CCCCn1c(N)c(N(CC)C(=O)C2CCC2)c(=O)[nH]c1=O` stands 10.1%; under `CC1=C(C(=O)OCC2CCCO2)C(c2ccc(F)cc2)NC(=O)N1` (stereo not drawn), 13%; under `COc1ccc(N(C(=O)c2ccc(F)cc2)C2=CC3CCC(C2)N3C)cc1.Cl` (stereo not drawn), -50.3%. Turning to `COc1ccc(OC)c(NC(=O)CCn2ccnc2)c1`, the “hERG current change (%, negative = inhibition) at 1uM” value is listed as 15.3%. The value for `COc1cc(/C(C)=C/c2ccccc2)c2c(c1)oc1ccccc12` was 12.8%; that for `COc1ccc(OC)c(C2CC(=O)C3=C(C2)NC(=O)CC3c2ccc(O)c(OC)c2)c1` (stereo not drawn) was 11.9%; that for `CC(C)(C)NC(=O)CSc1nnc(-c2ccccn2)n1Cc1ccccc1` was -0.219%. For `COc1ccc2[nH]c3nc(SCc4nnc(-c5ccc(C)cc5)o4)nnc3c2c1`, the “hERG current change (%, negative = inhibition) at 1uM” value was found to be 3.98%. Under `O=C(c1n[nH]c2c1CCCC2)n1ccnc1` stands 15%; under `O=C(c1ccccc1)C1CCN(c2ncccc2[N+](=O)[O-])CC1`, 14.7%; under `CCOC(=O)c1sc(N2C(=O)C(O)=C(C(=O)c3ccco3)C2c2cccc(Cl)c2)nc1C` (stereo not drawn), 2.5%. Take `CC(CCc1ccco1)NC(=O)Nc1cccc(F)c1` (stereo not drawn): the “hERG current change (%, negative = inhibition) at 1uM” value was -21.7%. Under `CCOC(=O)C1CCN(C(C)C(=O)c2c(C)[nH]c3cc(C)ccc23)CC1` (stereo not drawn) stands -66.9%; under `COCCOc1ccc(C(F)(F)F)cc1NC(=O)COC(=O)C12CC3CC(CC(O)(C3)C1)C2`, -13.5%; under `COc1ccc(S(=O)(=O)N2CCc3cc(OC)c(OC)cc3C2)cc1`, 5.4%. Regarding `Cl.OC(CNC1CCCC1)COCCOc1ccc(Br)cc1` (stereo not drawn), the “hERG current change (%, negative = inhibition) at 1uM” value came to 4.92%. The value for `COCCN(C(=O)c1cc(Cl)ccn1)c1c(N)n(Cc2ccccc2)c(=O)[nH]c1=O` was 10.9%; that for `CC(C)NS(=O)(=O)c1ccc(NC(=O)C(C)Oc2ccc(C(=O)c3ccccc3)cc2)cc1` (stereo not drawn) was 5.25%; that for `COc1ccc(/C(O)=C2/C(=O)C(=O)N(CCN(C)C)C2c2cccnc2)cc1OC` (stereo not drawn) was 1.09%. As for `Cn1c(-c2ccccc2)c(C=O)c2ccccc21`, the “hERG current change (%, negative = inhibition) at 1uM” value is 0.386%. For `Cc1ccc(-n2c(N)cc(=O)nc2SCC(=O)N2CCN(c3ccccc3)CC2)cc1C`, the “hERG current change (%, negative = inhibition) at 1uM” value is recorded as 11.1%. Under `CCCn1c(C2CC(=O)N(c3cc(OC)ccc3OC)C2)nc2ccccc21` (stereo not drawn) stands 1.05%; under `CC(=O)Nc1ccc(S(=O)(=O)N2CCN(c3cc(C(F)(F)F)ccn3)CC2)cc1`, 9.39%; under `Cc1ccc(S(=O)(=O)N(c2cccc(C(F)(F)F)c2)C2C=CS(=O)(=O)C2)cc1` (stereo not drawn), 10.4%. For `COC(=O)Nc1ccc(SCC(=O)c2ccc(Cl)cc2)cc1`, the “hERG current change (%, negative = inhibition) at 1uM” value was determined as 19.5%. Under `COc1ccc(C(=O)NC(=S)NNC(=O)c2c(-c3ccccc3)noc2C)cc1` stands 15.6%; under `O=C(CNC(=O)OCc1ccccc1)Nc1ccc(F)cc1`, 9.42%; under `Oc1ccc(-c2nc3ncccn3c2Nc2ccc3c(c2)OCO3)cc1`, 10.7%.

Regarding `COc1ccc(C2CC(c3cccs3)=NN2c2ccccc2)cc1` (stereo not drawn), the “hERG current change (%, negative = inhibition) at 1uM” value is on record as 6.86%. Under `O=C(O)CCC1(C(=O)O)OCCc2ccccc21` (stereo not drawn) stands 2.75%; under `O=C(Nc1ccnn1C1CCN(C/C=C/c2ccccc2)CC1)C1CCCC1`, -78.4%; under `Cc1ccc(S(=O)(=O)N2CCOCC2)cc1NC(=O)COC(=O)CCC(=O)c1cccs1`, 5.96%.

Regarding `COc1ccc2c(c1)[C@@]13CCC=C[C@H]1[C@@H](C2)NCC3.Cl`, the “hERG current change (%, negative = inhibition) at 1uM” value is on record as 9.55%. Under `NS(=O)(=O)c1ccc(CCNCC(=O)NC2CC2)cc1` stands -36%. Under `O=C1CSC(c2cn(-c3ccccc3)nc2-c2cc3ccccc3oc2=O)N1Cc1ccco1` (stereo not drawn) stands 10.3%; under `CCCOc1ccc(C2C(C(=O)OC)=CN(CCOC)C=C2C(=O)OC)cc1`, -5.54%; under `O=C(CNC(=S)N(Cc1ccccc1)Cc1cccnc1)NCc1ccccc1`, 0.171%. Take `CC1CCN(C(=O)c2[nH]cnc2C(=O)Nc2cccc(Cl)c2)CC1`: the “hERG current change (%, negative = inhibition) at 1uM” value was 13.9%. Consider `COc1cccc(S(=O)(=O)NCc2ccc(C(=O)N3CCN(Cc4ccccc4)CC3)cc2)c1`, for which the “hERG current change (%, negative = inhibition) at 1uM” value is recorded as 14.5%. The value for `CCN(CC)S(=O)(=O)c1ccc(OC)c(NC(=O)CSc2ccccc2)c1` was -39.9%.

Regarding `Cc1ccc(NC(=S)N2CCC(N(C)CC3CCCO3)CC2)cc1` (stereo not drawn), the “hERG current change (%, negative = inhibition) at 1uM” value was 4.55%.
